Results: patent US12274759B2, “Affibody proteins specific for B7-H3 (CD276)” (THE BOARD OF TRUSTEES OF THE LELAND STANFORD JUNIOR …, priority 2018, dated 2025)

Experiments:
[1] = biological target: T1, hB7-H3 on tumor vasculature (MS1hB7-H3 cells) (Homo sapiens, UniProt Q5ZPR3); test: In vivo ultrasound molecular imaging of orthotopic MDA-MB-231 tumors co-implanted with MS1hB7-H3 cells in nude mice; details: Example 3, left flank tumors, 5×10^7 MB intravenously
T1 construct: expressed in transfected cells; host or cells: MS1 (MILE SVEN 1) mouse vascular endothelial cells, ATCC CRL2279
T1 sequence (Q5ZPR3 29-534): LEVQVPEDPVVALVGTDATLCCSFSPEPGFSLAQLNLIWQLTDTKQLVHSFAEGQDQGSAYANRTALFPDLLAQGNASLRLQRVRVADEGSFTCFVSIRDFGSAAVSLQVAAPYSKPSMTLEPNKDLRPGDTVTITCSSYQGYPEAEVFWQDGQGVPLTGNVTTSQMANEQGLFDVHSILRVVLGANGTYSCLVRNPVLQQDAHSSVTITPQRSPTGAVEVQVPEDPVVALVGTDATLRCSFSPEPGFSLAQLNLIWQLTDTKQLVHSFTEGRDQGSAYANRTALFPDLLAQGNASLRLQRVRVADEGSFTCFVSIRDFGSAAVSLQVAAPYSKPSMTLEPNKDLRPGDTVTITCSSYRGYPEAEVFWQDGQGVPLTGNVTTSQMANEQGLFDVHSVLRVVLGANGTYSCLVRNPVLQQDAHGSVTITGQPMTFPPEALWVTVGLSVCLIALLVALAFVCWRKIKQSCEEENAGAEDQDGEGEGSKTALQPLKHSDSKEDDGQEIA
From the text: (§1) Two mouse models of breast cancer. All experiments were approved by the Institutional Administrative Panel on Laboratory Animal Care. An orthotopic human breast cancer model with tumors from MDA-MB-231 cells stably expressing firefly luciferase (f-luc) reporter gene mixed in matrigel with either MS1WT or MS1hB7-H3 cells expressing renilla luciferase (r-luc) reporter gene was used for establishing tumors in the contralateral flanks of nude (nu/nu) mice (The Jackson Laboratory). Reporter expression details are provided in the supplemental document.
(§2) 1×10^6 MDA-MB-231/f-luc cells were mixed with 5×10^6 MS1/r-luc cells and implanted on the fourth mammary glands: MS1hB7-H3ir-luc cell mixture on the left flank and MSIWT/r-luc cell mixture on the right flank. Imaging was performed in the nude mice after two weeks of tumor cell engraftment with a mean size of 4 mm (range, 3-5 mm).
(§3) Ultrasound (US) molecular imaging. Contrast-enhanced US imaging was performed using a dedicated small-animal high resolution US imaging system (Veno 2100; VisualSonics). All mice were kept anesthetized with 2% isoflurane in room air at 2 L/min on a heated stage at 37° C. throughout the US molecular imaging sessions. […]

[2] = system: MDA-MB-231 tumors with MS1WT cells; test: In vivo ultrasound molecular imaging of orthotopic MDA-MB-231 tumors co-implanted with MS1WT cells in nude mice; design: species or system mouse; details: Example 3, right flank tumors, 5×10^7 MB intravenously
From the text: as §1, §2, §3

B1: MBABY-B7-H3: contrast microbubbles functionalized with ABYB7-H3 (biotinylated ABY on streptavidin-coated, lipid-shelled perfluorocarbon MB) (conjugate)
chain: AEAKYAKEKIFAVGEIYWLPNLTHGQIMAFIAALNDDPSQSSELLSEAKKLNDSQAPKHHHHHH
[1]
  US molecular imaging signal in orthotopic tumors with MS1hB7-H3 cells: 8.4±3.3 a.u.
[2]
  US molecular imaging signal in orthotopic tumors with MS1WT cells: 1.4±1.0 a.u. and 1.6±0.6 a.u.

Where “and” joins values, the source holds several entries; their conditions need not be identical. Identical values can stand only once.
